Experiment [1] deals with T1, Flag-PGAM5, full-length (WT) (UniProt Q96HS1).
T1 sequence: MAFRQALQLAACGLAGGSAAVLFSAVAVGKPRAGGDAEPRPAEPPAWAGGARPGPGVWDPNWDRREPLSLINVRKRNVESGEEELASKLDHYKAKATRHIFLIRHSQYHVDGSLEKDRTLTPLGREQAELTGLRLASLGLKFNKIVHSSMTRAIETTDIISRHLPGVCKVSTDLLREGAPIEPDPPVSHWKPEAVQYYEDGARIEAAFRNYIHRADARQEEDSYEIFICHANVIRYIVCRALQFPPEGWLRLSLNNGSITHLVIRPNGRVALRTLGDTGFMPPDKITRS
Briefly: co-IP; Hep3B or PLC cells stably expressing or infected with the tagged proteins; whole cell lysates immunoprecipitated with anti-Flag antibody (or IgG), immunoblot; some cells treated with FCCP for 6 h or glucose-free medium for 24 h, or with SND1 knocked down. A general note: In western blotting, separated proteins are transferred to a membrane and probed.

The chains behind the UniProt entries cited, without tags or fusion partners.
UniProt O00429: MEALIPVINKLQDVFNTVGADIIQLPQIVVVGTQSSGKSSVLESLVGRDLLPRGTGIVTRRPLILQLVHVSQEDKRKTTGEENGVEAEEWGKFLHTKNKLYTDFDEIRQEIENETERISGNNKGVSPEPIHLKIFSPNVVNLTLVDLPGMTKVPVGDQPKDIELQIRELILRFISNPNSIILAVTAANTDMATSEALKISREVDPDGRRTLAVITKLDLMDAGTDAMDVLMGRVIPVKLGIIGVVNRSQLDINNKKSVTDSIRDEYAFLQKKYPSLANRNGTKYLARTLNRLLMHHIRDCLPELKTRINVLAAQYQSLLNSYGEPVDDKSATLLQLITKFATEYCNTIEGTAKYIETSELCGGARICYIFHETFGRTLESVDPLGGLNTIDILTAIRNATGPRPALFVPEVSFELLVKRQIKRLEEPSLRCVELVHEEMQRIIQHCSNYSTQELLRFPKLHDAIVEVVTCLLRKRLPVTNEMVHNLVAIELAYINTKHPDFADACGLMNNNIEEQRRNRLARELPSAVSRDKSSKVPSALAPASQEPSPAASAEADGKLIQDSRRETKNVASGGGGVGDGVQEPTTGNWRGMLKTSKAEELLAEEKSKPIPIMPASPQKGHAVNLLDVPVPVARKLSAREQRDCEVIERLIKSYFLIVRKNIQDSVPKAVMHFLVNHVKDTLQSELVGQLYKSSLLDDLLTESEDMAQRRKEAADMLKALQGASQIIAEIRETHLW

Experiment [2] deals with T1, Flag-PGAM5, full-length (WT). Briefly: co-IP; Hep3B or PLC cells stably expressing HA-SND1 and infected with Flag-PGAM5; anti-Flag IP in enriched mitochondrial fractions, immunoblot with antibodies against PGAM5 and SND1.
Experiment [3] concerns the target T2, Flag-PGAM5 N-terminus (1-98) (UniProt Q96HS1).
T2 sequence: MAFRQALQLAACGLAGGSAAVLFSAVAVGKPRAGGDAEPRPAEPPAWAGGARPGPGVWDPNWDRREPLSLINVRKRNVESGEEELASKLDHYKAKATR
Briefly: co-IP; HEK293T cells transfected with HA- and Flag-tagged plasmids; lysates in IP buffer (0.5% NP-40, 20 mM Tris-HCl pH 7.5, 150 mM NaCl, 2 mM EDTA, 1.5 mM MgCl2) immunoprecipitated with anti-Flag antibody (or IgG), protein A/G beads, immunoblot.

The target in experiment [4] is T1, Flag-PGAM5, full-length (WT). The description is as above.
The target in experiment [5] is T3, Flag-PGAM5 C-terminus (99-289) (UniProt Q96HS1).
T3 sequence: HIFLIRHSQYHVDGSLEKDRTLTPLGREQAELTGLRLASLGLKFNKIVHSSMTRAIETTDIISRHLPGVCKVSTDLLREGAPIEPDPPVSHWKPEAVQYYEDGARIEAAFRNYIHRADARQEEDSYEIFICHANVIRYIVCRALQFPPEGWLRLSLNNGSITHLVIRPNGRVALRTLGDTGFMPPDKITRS
Described as above.

The target in experiment [6] is T4, Flag-TOM70 (translocase of outer membrane 70) (UniProt O94826).
T4 sequence: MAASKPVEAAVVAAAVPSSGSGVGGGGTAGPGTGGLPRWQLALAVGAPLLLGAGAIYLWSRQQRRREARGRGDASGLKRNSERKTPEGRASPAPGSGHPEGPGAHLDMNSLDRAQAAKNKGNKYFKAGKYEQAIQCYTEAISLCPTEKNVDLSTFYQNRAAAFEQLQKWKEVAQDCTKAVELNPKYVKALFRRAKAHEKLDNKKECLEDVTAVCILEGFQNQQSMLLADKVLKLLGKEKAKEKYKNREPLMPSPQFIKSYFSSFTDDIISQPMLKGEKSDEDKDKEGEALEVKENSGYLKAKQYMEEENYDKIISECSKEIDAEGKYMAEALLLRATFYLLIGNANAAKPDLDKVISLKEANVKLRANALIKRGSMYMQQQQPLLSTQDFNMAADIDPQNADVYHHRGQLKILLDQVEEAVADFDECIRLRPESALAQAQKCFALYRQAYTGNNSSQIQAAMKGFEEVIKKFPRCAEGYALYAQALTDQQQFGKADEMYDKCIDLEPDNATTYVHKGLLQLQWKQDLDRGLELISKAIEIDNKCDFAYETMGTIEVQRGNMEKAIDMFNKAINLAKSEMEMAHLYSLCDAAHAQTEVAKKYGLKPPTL
Described as above.

Experiment [7] concerns the target T5, Flag-TOM20 (translocase of outer mitochondrial membrane 20), Q15388.
T5 chain: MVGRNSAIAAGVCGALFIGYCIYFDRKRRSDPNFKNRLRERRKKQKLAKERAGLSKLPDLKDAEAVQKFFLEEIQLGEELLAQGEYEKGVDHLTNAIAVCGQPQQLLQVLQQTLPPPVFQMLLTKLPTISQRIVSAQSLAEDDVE
Described as above. Particulars: remark: other sources report otherwise.

No constants are given. Whether binding was seen depends on the method and setting. In cells and extracts the contact can be indirect. Some binding calls cover weakened binding; strength is not graded here. Tags and fused reporters may be left off the sequences shown.

On to “HA-DRP1 (dynamin-related protein 1) (from UniProt O00429 1-736)”, for which, in experiment [1], the binding result is given as “binds”.
On to “HA-SND1 (Staphylococcal nuclease domain-containing protein 1) (from UniProt Q7KZF4 1-910)”, for which the binding result in experiment [2] is recorded as “binds”; in experiment [3] it was “no binding”; in experiment [4] it was “binds”; in experiment [5] it was “binds”; in experiment [6], “binds”; in experiment [1] it was “binds”.
As for “SND1, endogenous (from UniProt Q7KZF4 1-910)”, the binding entry in experiment [4] and in experiment [1] was “binds” in each case.

B1: HA-SND1 (Staphylococcal nuclease domain-containing protein 1), Q7KZF4 1-910 (protein)
chain: MASSAQSGGSSGGPAVPTVQRGIIKMVLSGCAIIVRGQPRGGPPPERQINLSNIRAGNLARRAAATQPDAKDTPDEPWAFPAREFLRKKLIGKEVCFTIENKTPQGREYGMIYLGKDTNGENIAESLVAEGLATRREGMRANNPEQNRLSECEEQAKAAKKGMWSEGNGSHTIRDLKYTIENPRHFVDSHHQKPVNAIIEHVRDGSVVRALLLPDYYLVTVMLSGIKCPTFRREADGSETPEPFAAEAKFFTESRLLQRDVQIILESCHNQNILGTILHPNGNITELLLKEGFARCVDWSIAVYTRGAEKLRAAERFAKERRLRIWRDYVAPTANLDQKDKQFVAKVMQVLNADAIVVKLNSGDYKTIHLSSIRPPRLEGENTQDKNKKLRPLYDIPYMFEAREFLRKKLIGKKVNVTVDYIRPASPATETVPAFSERTCATVTIGGINIAEALVSKGLATVIRYRQDDDQRSSHYDELLAAEARAIKNGKGLHSKKEVPIHRVADISGDTQKAKQFLPFLQRAGRSEAVVEYVFSGSRLKLYLPKETCLITFLLAGIECPRGARNLPGLVQEGEPFSEEATLFTKELVLQREVEVEVESMDKAGNFIGWLHIDGANLSVLLVEHALSKVHFTAERSSYYKSLLSAEEAAKQKKEKVWAHYEEQPVEEVMPVLEEKERSASYKPVFVTEITDDLHFYVQDVETGTQLEKLMENMRNDIASHPPVEGSYAPRRGEFCIAKFVDGEWYRARVEKVESPAKIHVFYIDYGNREVLPSTRLGTLSPAFSTRVLPAQATEYAFAFIQVPQDDDARTDAVDSVVRDIQNTQCLLNVEHLSAGCPHVTLQFADSKGDVGLGLVKEGLVMVEVRKEKQFQKVITEYLNAQESAKSARLNLWRYGDFRADDADEFGYSR
Take B1: the binding entry in experiment [7] was “no binding”.

For the origin of these results see PMC9008731.
